{"source": "the supplement of paper PMC11417369", "note": "The other results are listed elsewhere or left out."}
{"test_system": "PfSIP2 AP2 domain 1 (GST-tagged)", "assay": "gcPBM binding intensity (ln(normalized median fluorescence intensity)); higher = stronger DNA binding", "in_short": "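GST-fused DNA-binding domains of P. falciparum, expressed in E. coli, were applied at about 25 μg on average for 1 h to an Agilent 4 × 180k array of primer-extended double-stranded 36-bp intergenic genomic probes and negative controls. Binding intensity is the highest Masliner-normalised natural-log median intensity across replicate spots of either probe orientation, measured with Alexa488 anti-GST antibody and a 488 nm scan.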"}
{"sequence": "TATCGTTATATAATATGTACATATAAAATTTAAATT [XGTACX_site1887]", "gcPBM binding intensity (ln)": 7.31}
{"sequence": "AAAATGTATATATAAACATGCACACGTGGTTGTATA [TGCATGCA_site847]", "gcPBM binding intensity (ln)": 7.47}
{"sequence": "TCTTAAATTTCTTTATGTACATAATTAATATATTTA [XGTACX_site4456]", "gcPBM binding intensity (ln)": 6.95}
{"sequence": "TATATATTATGACCACCACACACCTATACGCATAAC [CACACA_site2447]", "gcPBM binding intensity (ln)": 7.27}
{"sequence": "ATGATAGTATGTATGAGTACGAAAAAAAAAAATTAA [XGTACX_site32]", "gcPBM binding intensity (ln)": 6.99}
{"sequence": "TGTGGGAATAACCACACACACACACCCATATATATA [CACACA_site5876]", "gcPBM binding intensity (ln)": 7.35}
{"sequence": "ATATATATATATATTGTACACACATTTATGCATATA [CACACA_site9055]", "gcPBM binding intensity (ln)": 9.1}
{"sequence": "AAATGCAAATGATGATGTACATACAAAAATTAAATT [XGTACX_site5323]", "gcPBM binding intensity (ln)": 7.15}
{"sequence": "ATATATATATATATATGTACATATCACTTTAAATAT [XGTACX_site3859]", "gcPBM binding intensity (ln)": 9.27}
{"sequence": "TTTTCTTAAAAAATCAAACACACATATATATATACA [CACACA_site2297]", "gcPBM binding intensity (ln)": 7.12}
{"sequence": "AATCTAATGTAATGCATACACACAACTATCCATCAA [CACACA_site535]", "gcPBM binding intensity (ln)": 6.9}
{"sequence": "AATATACGAAATTGTGCACACATATATTTATGTATG [CACACA_site1510]", "gcPBM binding intensity (ln)": 8.69}
{"sequence": "TAAAATGAAGGAATATGTACATAAATAAACATATAT [XGTACX_site6266]", "gcPBM binding intensity (ln)": 6.98}
{"sequence": "CATATATGATATATTAGTACATATATATATATATAT [XGTACX_site1574]", "gcPBM binding intensity (ln)": 9.76}
{"sequence": "CGATATAAAGATATTAGTACATATGCATGCTTGTCT [XGTACX_site8629]", "gcPBM binding intensity (ln)": 6.69}
{"sequence": "AAAAATAAAGTAAAAGCATGCTAGTATATGGAAAAT [TGCATGCA_site486]", "gcPBM binding intensity (ln)": 6.93}
{"sequence": "TTGAAATTAAATGACATACACACTATATTATATATT [CACACA_site3135]", "gcPBM binding intensity (ln)": 6.83}
{"sequence": "AGGTATATATATTTATGTACTTAAAATGAGAAAATA [XGTACX_site8337]", "gcPBM binding intensity (ln)": 7.09}
{"sequence": "CATATACGCAAACACACACACATATATATATATATA [CACACA_site501]", "gcPBM binding intensity (ln)": 9.58}
{"sequence": "TATAATAATATTTATTGTACAATTAGGTTAATTCAT [XGTACX_site1986]", "gcPBM binding intensity (ln)": 6.95}
{"sequence": "GCATTTTAATAATTATGTACATATATTATTCCTGGT [XGTACX_site3664]", "gcPBM binding intensity (ln)": 7.28}
{"sequence": "TTCCATCAAAAAATGGGTACACATTATAGAAATATT [XGTACX_site8482]", "gcPBM binding intensity (ln)": 7.18}
{"sequence": "AAAACATACAGATATACACACATATATATATATATA [CACACA_site5091]", "gcPBM binding intensity (ln)": 9.01}
{"sequence": "ATATTTAAACGATGGTGTACATATATTACAAGTTGT [XGTACX_site1743]", "gcPBM binding intensity (ln)": 7.46}
{"sequence": "ATATAGATCTACACTGCACACATTTTTAACACTGCT [CACACA_site1882]", "gcPBM binding intensity (ln)": 7.21}
{"sequence": "TATACATATATATATACACACATATATATATATACA [CACACA_site402]", "gcPBM binding intensity (ln)": 7.23}
{"sequence": "ACGCATGTAATTTATACACACATTCTTTTATATTTT [CACACA_site3708]", "gcPBM binding intensity (ln)": 6.95}
{"sequence": "AAATTATTATCGTTAATATGTATATATGTGCCAAGT [TGCATGCA_negctrl_site557]", "gcPBM binding intensity (ln)": 7.22}
{"sequence": "CAATTAAATATATGAACACACATGTGAACTTTCTAT [CACACA_site3977]", "gcPBM binding intensity (ln)": 6.86}
{"sequence": "AAATACCTGATATATACACACTATGTTTTTCTTTTT [CACACA_site6680]", "gcPBM binding intensity (ln)": 7}
{"sequence": "TATTAAATTATATAGACACACATTATATATATATAT [CACACA_site4345]", "gcPBM binding intensity (ln)": 8.96}
{"sequence": "AAAAAGAAATATTTATGTACATAATAATAATATTTT [XGTACX_site4693]", "gcPBM binding intensity (ln)": 6.85}
{"sequence": "AATATAGATACATATACACACACACCCATACATATA [CACACA_site9137]", "gcPBM binding intensity (ln)": 7.3}
{"sequence": "AAGAAAAACATTACGTGTACCAAAAGGCCTGTCAAC [XGTACX_site267]", "gcPBM binding intensity (ln)": 6.99}
{"sequence": "GTAACAAATAAAATAACACACATGTCGAAATGTATG [CACACA_site2971]", "gcPBM binding intensity (ln)": 7}
{"sequence": "ATAATTATATAAATATATATAATATATATATGAAAA [XGTACX_negctrl_site357]", "gcPBM binding intensity (ln)": 6.9}
{"sequence": "AAAATGGGTTAGCACATACACACCAATATATTATAT [CACACA_site3082]", "gcPBM binding intensity (ln)": 6.89}
{"sequence": "TATAGATGTATGTACATACACACATATATAAATAAA [CACACA_site1789]", "gcPBM binding intensity (ln)": 7.05}
{"sequence": "TGTTAATTTATATTATGTACTTATAATTATCGTTTG [XGTACX_site1032]", "gcPBM binding intensity (ln)": 7.08}
{"sequence": "ATAATTCTAAATAAATGTACACACAAAAATAAATGT [XGTACX_site3547]", "gcPBM binding intensity (ln)": 7.28}
{"sequence": "ATTGTATGCACGTCTGCACACTTTTTTTTTTTTTTT [CACACA_site2082]", "gcPBM binding intensity (ln)": 8.65}
{"sequence": "TAACGCATGAATATAATATATATATATATAAAAATA [GTGCAC_negctrl_site218]", "gcPBM binding intensity (ln)": 7.35}
{"sequence": "GTTAATTGAAGATTCACACATAAATATATATATAAT [CACACA_site5482]", "gcPBM binding intensity (ln)": 6.92}
{"sequence": "TAGATAAATGGGTATACACACATATACATAAATATA [CACACA_site375]", "gcPBM binding intensity (ln)": 6.89}
{"sequence": "GTAAGATTTCTTGTTGCATGCGGTAAAAAGTAAAAT [TGCATGCA_site469]", "gcPBM binding intensity (ln)": 7.39}
{"sequence": "TACACCCACCAACACACACACACACCCAAAAAAAAA [CACACA_site498]", "gcPBM binding intensity (ln)": 7.6}
{"sequence": "AACTTTATACTTTTTTGTACTTAACCCTTACATTTT [XGTACX_site5798]", "gcPBM binding intensity (ln)": 7.32}
{"sequence": "AACATACATAAACACACACACACACCCACACCCACA [CACACA_site8058]", "gcPBM binding intensity (ln)": 7.09}
{"sequence": "TTTATATATTTATTCACACATATAATATTCCGTCGT [CACACA_site6120]", "gcPBM binding intensity (ln)": 6.88}
{"sequence": "TTTATGAAACAGTGCACACATAAAAATATATACATA [CACACA_site2992]", "gcPBM binding intensity (ln)": 11}
{"sequence": "TAATTATAAATTATAGTGCATAAAATTGTAGCATAA", "gcPBM binding intensity (ln)": 8.6}
{"sequence": "AAAATATGATATGAAAAATTTGTTATATATACATAA [CACACA_negctrl_site1529]", "gcPBM binding intensity (ln)": 6.84}
{"sequence": "GACATTTGTGAGCTTGAGCCGTCAAACCACTAAATA [CACACA_negctrl_site552]", "gcPBM binding intensity (ln)": 6.58}
{"sequence": "TGTATTAATATGGTAATACACACTAATATACTTTTG [CACACA_site1610]", "gcPBM binding intensity (ln)": 6.81}
{"sequence": "TGTAGAATTTCCTGAACATGCAAATAATTTTCCTTA [TGCATGCA_site881]", "gcPBM binding intensity (ln)": 6.65}
{"sequence": "AAAAAATTGAAGGAGTGTACATTTATACTTTATTTT [XGTACX_site8623]", "gcPBM binding intensity (ln)": 6.8}
{"sequence": "TGTTATTCGACATATACACACAAATAACAATTTAAA [CACACA_site5076]", "gcPBM binding intensity (ln)": 7.1}
